Experimental data as given in the supplement of paper PMC4996465.
Viability of KB3-1 and Nalm-6 cells after 48 h of drug alone (CellTiter-Glo), 11 doses over about 4.5 log units. % of DMSO wells, lower = more cell loss; AC50 from the fitted curve, lower = more potent. No active / inactive call. Nalm-6 was screened in two runs. AC50 is listed only for well-fitted inhibitory curves. KB3-1 is a HeLa-derived carcinoma line, Nalm-6 a B-cell precursor leukaemia line.

Columns and labels:
Nalm-6 [1] = assay: viability (% of DMSO control); higher = more viable cells
Experimental: (§1)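 Eleven-dose screen of the NCATS MIPE 3 library on cells without co-treatment; CellTiter-Glo after 48 h, as % of DMSO wells.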

KB3-1 = assay: as above
Experimental: as §1

Nalm-6 [2] = assay: log AC50 of viability decrease (48 h) (log10 M); higher = less potent
Experimental: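 Eleven-dose screen of the NCATS MIPE 3 library on cells without co-treatment; CellTiter-Glo after 48 h. AC50 from the curve fit; only inhibitory curves of the better fit classes are listed.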

| Compound | viability (Nalm-6 [1]; run: 1, 0.00078 µM) | viability (Nalm-6 [1]; run: 1, 0.00234 µM) | viability (Nalm-6 [1]; run: 1, 0.00702 µM) | viability (Nalm-6 [1]; run: 1, 0.0211 µM) | viability (Nalm-6 [1]; run: 1, 0.0632 µM) | viability (Nalm-6 [1]; run: 1, 0.19 µM) | viability (Nalm-6 [1]; run: 1, 0.569 µM) | viability (Nalm-6 [1]; run: 1, 1.71 µM) | viability (Nalm-6 [1]; run: 1, 5.12 µM) | viability (Nalm-6 [1]; run: 1, 15.4 µM) | viability (Nalm-6 [1]; run: 1, 46.1 µM) | viability (Nalm-6 [1]; run: 2, 0.00078 µM) | viability (Nalm-6 [1]; run: 2, 0.00234 µM) | viability (Nalm-6 [1]; run: 2, 0.00702 µM) | viability (Nalm-6 [1]; run: 2, 0.0211 µM) | viability (Nalm-6 [1]; run: 2, 0.0632 µM) | viability (Nalm-6 [1]; run: 2, 0.19 µM) | viability (Nalm-6 [1]; run: 2, 0.569 µM) | viability (Nalm-6 [1]; run: 2, 1.71 µM) | viability (Nalm-6 [1]; run: 2, 5.12 µM) | viability (Nalm-6 [1]; run: 2, 15.4 µM) | viability (Nalm-6 [1]; run: 2, 46.1 µM) | viability (KB3-1; 0.00078 µM) | viability (KB3-1; 0.00234 µM) | viability (KB3-1; 0.00702 µM) | viability (KB3-1; 0.0211 µM) | viability (KB3-1; 0.0632 µM) | viability (KB3-1; 0.19 µM) | viability (KB3-1; 0.569 µM) | viability (KB3-1; 1.71 µM) | viability (KB3-1; 5.12 µM) | viability (KB3-1; 15.4 µM) | viability (KB3-1; 46.1 µM) | log AC50 of viability decrease (Nalm-6 [2]; run: 1) | log AC50 of viability decrease (Nalm-6 [2]; run: 2) |
| --- | --- | --- | --- | --- | --- | --- | --- | --- | --- | --- | --- | --- | --- | --- | --- | --- | --- | --- | --- | --- | --- | --- | --- | --- | --- | --- | --- | --- | --- | --- | --- | --- | --- | --- | --- |
| N#Cc1ccc(NC(=O)Nc2ccccc2Br)c2nn[nH]c12 | 117% | 113% | 114% | 110% | 117% | 119% | 117% | 113% | 108% | 101% | 44.6% | 104% | 109% | 97.7% | 108% | 110% | 107% | 108% | 102% | 97.3% | 79.7% | 19.7% | 108% | 111% | 102% | 105% | 108% | 110% | 80.5% | 105% | 104% | 104% | 76.3% | -4.63 | -4.58 |
| c1ccc(-c2nn3c(c2-c2ccnc4cc(OCCN5CCOCC5)ccc24)CCC3)nc1 | 96.4% | 105% | 103% | 101% | 109% | 110% | 124% | 126% | 136% | 117% | 27.6% | 102% | 108% | 104% | 104% | 113% | 111% | 114% | 112% | 119% | 95.9% | 8.85% | 105% | 107% | 104% | 110% | 104% | 112% | 111% | 111% | 114% | 105% | 97.3% |  | -4.58 |
| CC(=O)C\1=C(/C)C2=CN=C(NC3=CC=C(C=N3)N4CCNCC4)N=C2N(C5CCCC5)C1=O | 87% | 91.6% | 90.9% | 91.9% | 80.8% | 66.5% | 64.2% | 56.8% | 47.4% | 48.2% | 1.49% | 110% | 107% | 97.6% | 103% | 95% | 75.6% | 73.1% | 65.6% | 64.6% | 61% | 0.969% | 106% | 98.2% | 97.1% | 103% | 99.3% | 103% | 100% | 97.4% | 97.4% | 90.2% | 3.82% | -4.93 | -4.78 |
| CC(C)(C)C(=O)Oc1ccc2c(c1)nc(NC(=O)c1cccc([N+](=O)[O-])c1)n2CCCO | 106% | 104% | 101% | 93.7% | 102% | 104% | 97.5% | 91.5% | 88.2% | 86.6% | 29.5% | 98.9% | 102% | 101% | 96.1% | 90.1% | 94.9% | 86.3% | 94.5% | 89% | 85.7% | 15.4% | 103% | 100% | 98.4% | 95.5% | 101% | 104% | 94.1% | 99.5% | 99.5% | 98.6% | 94.4% | -4.63 |  |
| Cc1n[nH]c(C)c1Cc1sc2c(c1C(=O)N1C[C@H](O)CO1)c(=O)n(C)c(=O)n2CC(C)C | 73.3% | 71.3% | 59.3% | 62.4% | 66.9% | 55.7% | 59.3% | 59.9% | 59.3% | 60.1% | 58% | 82.7% | 57% | 53.7% | 41.1% | 42.6% | 42.6% | 43.3% | 41.4% | 44.8% | 40.7% | 40% | 105% | 93.2% | 104% | 110% | 103% | 104% | 107% | 106% | 110% | 110% | 106% |  | -8.73 |
| CC(C)C[C@H](NC(=O)c1cc2ccccc2s1)C(=O)N1CCN(C(=O)[C@H](CO)NS(=O)(=O)c2ccc(Cl)cc2Cl)CC1 | 98.4% | 105% | 97.1% | 98.5% | 97.1% | 95.3% | 84.4% | 84.5% | 68.6% | 72.7% | 0.135% | 99.9% | 97.1% | 99.7% | 105% | 101% | 103% | 102% | 102% | 101% | 104% | 2.83% | 102% | 99% | 101% | 101% | 97.5% | 97.5% | 97.9% | 97.3% | 102% | 97.4% | 19.8% | -4.68 |  |
| Cc1[nH]c(/C=C2\C(=O)Nc3ccc(S(=O)(=O)Cc4c(Cl)cccc4Cl)cc32)c(C)c1C(=O)C1CCCN1CN1CCCC1 (stereo not drawn) | 117% | 127% | 129% | 123% | 115% | 114% | 120% | 111% | 102% | 79.5% | -1.65% | 109% | 108% | 106% | 109% | 111% | 106% | 111% | 92.4% | 91.1% | 88% | -0.684% | 104% | 105% | 105% | 103% | 104% | 102% | 102% | 101% | 98.3% | 101% | -1.18% | -4.68 | -4.63 |
| Cc1ccccc1C(C(=O)NC1CCCC1)N(C(=O)Cn1cnc2ccccc21)c1cccc(F)c1 (stereo not drawn) | 72.3% | 105% | 101% | 110% | 106% | 120% | 119% | 114% | 105% | 91.7% | 64% | 97.8% | 101% | 99% | 106% | 102% | 109% | 107% | 94% | 102% | 88.9% | 16.4% | 97.1% | 96.8% | 101% | 103% | 102% | 107% | 108% | 105% | 107% | 98.1% | 45.4% |  | -4.63 |
| Cc1cccc(Nc2nc(N[C@@H]3CCCC[C@@H]3N)ncc2C(N)=O)c1 | 125% | 120% | 116% | 115% | 107% | 97.4% | 81.2% | 78% | 67.1% | 56.5% | 0.803% | 108% | 106% | 108% | 111% | 101% | 93.7% | 77.4% | 74.4% | 71.2% | 64.8% | 0.83% | 106% | 101% | 101% | 105% | 104% | 104% | 103% | 95.6% | 96.9% | 92.3% | 2.93% | -4.83 | -4.73 |
| Cc1cc2c(cc1C1(c3ccc(C(=O)O)cn3)CC1)C(C)(C)CCC2(C)C | 102% | 100% | 94.8% | 91.6% | 82% | 71.2% | 58.6% | 60.2% | 50.3% | 53.3% | 3.5% | 92.2% | 109% | 98.3% | 99.7% | 99.5% | 97.1% | 94.1% | 99% | 86.2% | 92.6% | 17% | 98.7% | 105% | 104% | 103% | 102% | 99.7% | 102% | 105% | 100% | 104% | 95.2% | -5.43 |  |
| Cc1c[nH]c(-c2cnc(NCCNc3ccc(C#N)cn3)nc2-c2ccc(Cl)cc2Cl)n1 | 98.7% | 104% | 115% | 106% | 126% | 124% | 106% | 49.3% | 13.7% | 12.6% | 1.71% | 108% | 108% | 108% | 111% | 116% | 108% | 87.5% | 23% | 3.58% | 3.32% | 2.15% | 99% | 101% | 102% | 98.9% | 105% | 109% | 111% | 107% | 102% | 98.3% | 14.5% | -5.83 | -6.03 |
| CCc1cncnc1N1CCN(Cc2nc3cc(C(F)(F)F)ccc3[nH]2)CC1 | 111% | 121% | 119% | 122% | 114% | 108% | 90.7% | 81.4% | 74.8% | 61.8% | 56.4% | 115% | 114% | 108% | 109% | 107% | 105% | 99.6% | 88.7% | 83.8% | 68.2% | 55.4% | 95.7% | 97.1% | 101% | 104% | 101% | 99.9% | 98.1% | 91% | 85.3% | 74.7% | 72.5% | -5.93 | -5.13 |
| CCc1cc(Nc2nccc(-c3c(-c4ccc(OC)c(C(=O)Nc5c(F)cccc5F)c4)nc4ccccn34)n2)c(OC)cc1N1CCC(N2CCN([S+](C)(=O)[O-])CC2)CC1 | 101% | 107% | 110% | 116% | 110% | 118% | 103% | 91% | 67.6% | 66.2% | 51.6% | 99.7% | 111% | 98.6% | 100% | 101% | 105% | 106% | 106% | 69.4% | 69.9% | 54.6% | 102% | 103% | 99.9% | 104% | 108% | 99.5% | 93% | 96.4% | 91.4% | 89.5% | 86% | -5.58 | -5.43 |
| CCCCOCCOc1nc(-c2ccc(C(=O)O)c(F)c2)sc1C | 94.4% | 106% | 102% | 81.9% | 65.6% | 37.7% | 5.48% | -0.623% | -1.27% | -1.29% | -1.33% | 75.5% | 101% | 105% | 102% | 108% | 109% | 102% | 109% | 109% | 108% | 89.8% | 95.4% | 97.5% | 97.5% | 97.3% | 97.3% | 96.4% | 95.8% | 98.5% | 96.9% | 91.9% | 61.4% | -6.93 |  |
